Source: PubChem BioAssay AID485344 (National Center for Advancing Translational Sciences (NCATS), 2010)
Screen size: about 340,000 compounds; about 6,900 (2%) were called active. Rule as the data show it: active = inhibition above about 30%; inactive = below that, where a call was filed. This is a selection; strong and weak results do not stand in their true shares. The source gives no active or inactive call for entries shown without one. Some structures have more than one record in an assay (separate samples or runs), and their calls can disagree.

Target: D(2) dopamine receptor (Homo sapiens) (UniProt P14416)
UniProt P14416, sequence (P14416 whole entry, looked up): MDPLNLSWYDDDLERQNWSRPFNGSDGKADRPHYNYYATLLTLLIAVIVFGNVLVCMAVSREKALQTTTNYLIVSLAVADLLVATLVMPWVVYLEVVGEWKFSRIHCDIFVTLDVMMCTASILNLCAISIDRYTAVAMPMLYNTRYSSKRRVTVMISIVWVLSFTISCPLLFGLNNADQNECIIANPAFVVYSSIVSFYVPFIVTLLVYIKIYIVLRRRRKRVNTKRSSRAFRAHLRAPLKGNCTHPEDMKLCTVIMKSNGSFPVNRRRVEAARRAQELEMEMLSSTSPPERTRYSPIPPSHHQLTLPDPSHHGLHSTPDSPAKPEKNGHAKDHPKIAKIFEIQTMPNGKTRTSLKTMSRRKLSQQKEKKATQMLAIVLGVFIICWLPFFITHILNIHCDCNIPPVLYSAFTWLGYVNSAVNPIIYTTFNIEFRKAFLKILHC
Experiment: HTS Assay for Allosteric Antagonists of the Human D2 Dopamine Receptor: Primary Screen for Antagonists; also: 0% is about no effect
Details: HEK293 TREx D2 cells, calcium flux, dopamine EC80; at 10 µM; stronger effect = higher value
Method in brief: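 Calcium flux kinetic readout in an inducible HEK293 TREx D2 line plated overnight at 30 C. After 180 s compound exposure, an EC80 dopamine challenge follows with another 180 s kinetic read to detect antagonism.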

Row | Structure (SMILES) | inhibition
1 | COc1ccc(S(=O)(=O)N(CC(=O)NCCSc2ccccc2)c2ccc(C)cc2)cc1 | 3.87%
2 | COc1ccccc1N1CCN(Cc2nc(N)nc(Nc3ccc(C)cc3)n2)CC1 | active: 89.2%
3 | CCOC(=O)c1cc(-c2ccccc2)n(CCC(=O)NCCc2cccc(C)c2)c1C | -9.37%
4 | COC(=O)c1ccc(NC(=O)C(=O)NCC(c2cccnc2)N2CCN(c3ccccc3)CC2)cc1 (stereo unspecified) | -4.04%
5 | CCCCNc1oc(-c2ccc(COc3ccccc3C)o2)nc1C#N | 8.84%
6 | COCCNc1nc2c(c(=O)n(Cc3cccc(Cl)c3)c(=O)n2C)n1C | -5.38%
7 | Cc1ccc(NC(=O)C2CCC(CNS(=O)(=O)c3ccc4c(c3)CCCC(=O)N4)CC2)cc1F (stereo unspecified) | -1.89%
8 | COc1ccc2c(c1)c1c(c(=O)n(Cc3ccccc3)c(=O)n1Cc1ccccc1Cl)n2C | -2.81%
9 | CCc1ccc(NC(=O)C2=C(C)C(=O)OC23CCCCC3)cc1 | 12.3%
10 | COc1ccc(OCC(=O)Nc2c(C(=O)N3CCN(c4ccccc4)CC3)oc3ccccc23)cc1 | 4.63%
11 | O=C(CSc1nnc(-c2cccc(F)c2)o1)N1CCCC1 | active: 32.2%
12 | COc1ccc(N2CCN(C(=O)COc3ccccc3C#N)CC2)cc1 | 10.5%
13 | Cc1ccc(Cl)cc1N1CCN(S(=O)(=O)c2c(C(=O)N3CCOCC3)c(C)n(C)c2C)CC1 | active: 37.6%
14 | Cc1ccc(C)c(NC(=O)C(Cc2ccccc2)n2cccc2)c1 (stereo unspecified) | 0.693%
15 | COc1ccc(OC)c(NC(=O)Cn2c(=O)n(Cc3ccco3)c(=O)c3cc(OC)c(OC)cc32)c1 | -8.39%
16 | Brc1ccc(Nc2c3c(nc4nncn24)CCC3)cc1 | -6.14%
17 | Cc1ccc(C(=O)Nc2ccc(-c3nc4ccccc4o3)cc2)cc1Cl | 6.54%
18 | COc1ccccc1CNC(=O)CCCCn1c(=O)c2ccccc2n(CC(=O)Nc2c(C)cc(C)cc2C)c1=O | -2.73%
19 | COc1ccccc1N1CCN(C2CCN(S(=O)(=O)c3ccc(NC(C)=O)cc3)CC2)CC1 | active: 31.7%
20 | COc1ccccc1Cc1nc2ccccc2nc1SCC(=O)Nc1ccc2c(c1)OCO2 | -10.2%
21 | CCOc1ccccc1CNC(=O)CCC(=O)N1CCSc2ccccc21 | 15.2%
22 | CCCN(CCC)C(=O)CSc1c2c(nc3ccc(Cl)cc13)CCCC2 | 10.3%
23 | O=[N+]([O-])c1cc(-c2nc(-c3ccccc3)no2)ccc1NCc1cccnc1 | -21.4%
24 | CCOc1ccc(-n2ccnc2SCC(=O)Nc2cccc3ccccc23)cc1 | -2.28%

Row | Structure (SMILES) | inhibition
25 | Cc1cccc(CC(=O)N2CC(=O)Nc3ccc(C)cc3C2c2ccc(F)cc2)c1 (stereo unspecified) | 11.6%
26 | N=c1c(S(=O)(=O)c2ccccc2)cc2c(=O)n3ccccc3nc2n1Cc1cccnc1 | active: 44.4%
27 | COc1cc(NC(=O)CCn2c(=O)oc3ccccc32)cc(OC)c1OC | -5.73%
28 | COC(=O)CC1Oc2ccc(F)cc2-n2cc(-c3ccc(C)cc3)nc21 (stereo unspecified) | 16.7%
29 | CCOC(=O)N1CCc2c(sc(NCc3cccc(F)c3)c2C(=O)Nc2ccc(OC)cc2)C1 | 11.9%
30 | Cc1ccc(CNc2nc3ccc(Cl)cc3n3nnnc23)cc1 | -1.39%
31 | COc1ccc(-n2cc(-c3ccccc3)nc2SCC(=O)Nc2ccccc2C)cc1 | -0.789%
32 | Cc1cc(-c2ccc(C)c(S(=O)(=O)Nc3ccccn3)c2)on1 | -4.13%
33 | COc1cc(OC)c(NS(=O)(=O)c2c(C(=O)N3CCCCCC3)c(C)n(C)c2C)cc1Cl | -20.7%
34 | COc1ccc(N(Cc2cccs2)C(=O)COc2cccc(C)c2C)cc1 | 2.32%
35 | CSc1ccc(NC(=O)C2CCN(c3ncccn3)CC2)cc1 | -20.9%
36 | Cc1ccc(S(=O)(=O)c2nc(-c3cccs3)oc2SCC(=O)Nc2cc(C)cc(C)c2)cc1 | -13.1%
37 | COc1ccccc1OCC(=O)N(Cc1cccs1)C1CCS(=O)(=O)C1 (stereo unspecified) | 14.2%
38 | CCOC(=O)Cn1nc(C)c(NC(=O)COc2ccccc2)c1C | -2.61%
39 | Cc1cccc(Cn2c(=O)n(CCCC(=O)NCc3ccccc3Cl)c(=O)c3ccccc32)c1 | -11%
40 | COc1ccccc1CNc1nc(-c2ccco2)nn1S(C)(=O)=O | -21.2%
41 | COc1ccc(S(=O)(=O)NC(C)(C)C)cc1-c1nnc2c3ccccc3c(C)nn12 | 16.1%
42 | COc1ccc(N2C(=O)CSC23C(=O)N(Cc2cccc(C(F)(F)F)c2)c2ccccc23)cc1 (stereo unspecified) | 5.48%
43 | Cc1ccc(Nc2c3c(nc4nc(-c5cccs5)nn24)CCCC3)cc1F | -3.99%
44 | Cc1oc(-c2ccc(Cl)cc2)nc1CS(=O)CC(=O)NCCc1ccccc1 (stereo unspecified) | -24.3%
45 | Cc1cccc(NC(=O)Cn2nnc(C(=O)NCc3cccs3)c2N)c1 | 7.53%
46 | NC(=O)c1c(NC(=O)c2cc(-c3ccc(F)cc3)on2)sc2c1CCCC2 | 16.8%
47 | CCC(C(=O)Nc1ccc(C(C)C)cc1)n1nc(C)n2c(cc3cc(C)ccc32)c1=O (stereo unspecified) | 0.929%
48 | CN(C)c1ccc(CNC(=O)C2CCCN(S(=O)(=O)c3ccc4c(c3)CCCC(=O)N4)C2)cc1 (stereo unspecified) | 5.06%

Row | Structure (SMILES) | inhibition
49 | Cc1ccc(C)c(Cn2c(=O)cc(C(F)(F)F)c3c(C)nn(C)c32)c1 | -9.6%
50 | Cc1ccccc1C(=O)NCc1nc(-c2ccc(Cl)cc2)no1 | -1.91%
51 | CCCCN(CC(=O)NC(C)(C)C)C(=O)C(=O)Nc1ccc2c(c1)OCCO2 | active: 64.1%
52 | Cc1cc(C(=O)N2CCc3ccccc32)n(-c2ccccc2)n1 | active: 37.1%
53 | FC(F)(F)c1nnc2ccc(NCc3ccccc3)nn12 | active: 79.7%
54 | CCc1nnc(SCc2nc(-c3cccc(Cl)c3)oc2C)c2cc3sc(C)cc3n12 | 12.2%
55 | COc1cc(OC)c(NS(=O)(=O)c2cc3c(cc2C)N(C(C)=O)CCO3)cc1Cl | -0.0108%
56 | COc1ccccc1NC(=O)CN(c1cc(C)cc(C)c1)S(=O)(=O)c1c(C)[nH]c(=O)[nH]c1=O | -20%
57 | c1ccc(Cn2cc(CNc3ccccc3)nn2)cc1 | active: 41.8%
58 | CCOC(=O)c1ccc(NC2(c3ccccc3)C(=O)c3ccccc3C2=O)cc1 | -2.94%
59 | Cc1ccc(-c2nnc3ccccc3c2C(=O)Nc2ccc(C)c(F)c2)cc1 | -0.762%
60 | COc1ccccc1C(=O)Nc1nnc(S(=O)(=O)N2CCN(c3ccc(F)cc3)CC2)s1 | 18.6%
61 | CCOC(=O)c1ccc(NC(=O)c2sc3ccccc3c2Cl)cc1 | -7.24%
62 | CCn1cc(CN2CCC(C(=O)Nc3ccc(Oc4cccnc4)cc3)CC2)cn1 | active: 30.9%
63 | Cc1ccc(NC(=O)c2c(C)nc3sc(C(=O)Nc4ccc(F)cc4)c(N)c3c2-c2ccc(Cl)cc2)c(C)c1 | 7.11%
64 | COc1cccc(NC(=O)CCc2nnc3n(Cc4ccccc4Cl)c(=O)c4ccccc4n23)c1 | 11.8%
65 | O=C1CC(c2nnc(Cc3c(F)cccc3Cl)o2)CN1c1ccccc1 (stereo unspecified) | 1.43%
66 | Cc1ccc(Nc2c(-c3ccc(N4CCOCC4)cc3)nc3cccc(C)n23)cc1 | -2.93%
67 | O=C(NC(=S)NCc1ccccc1)c1ccccc1 | active: 35.8%
68 | CCc1ccc(NC(=O)C2CCCN(S(=O)(=O)c3cccc4nsnc34)C2)cc1 (stereo unspecified) | -6.73%
69 | COc1ccc(Nc2nnc(-c3ccc(C)c(S(=O)(=O)NCc4nc5ccccc5[nH]4)c3)c3ccccc23)cc1 | 8.1%
70 | CCC(C)Sc1oc(-c2ccco2)nc1S(=O)(=O)c1ccc(Cl)cc1 (stereo unspecified) | 8.64%
71 | Cc1ccc(NC(=O)Cn2nnc(C(=O)NCCc3ccccc3)c2N)cc1 | -5.71%
72 | O=C(NCc1ccc(Cl)cc1)c1ccc2c(c1)NC(=O)C(CS(=O)(=O)Cc1ccc(F)cc1Cl)N2 (stereo unspecified) | 8.61%

Row | Structure (SMILES) | inhibition
73 | Clc1ccc(-c2csc(-c3nc(-c4ccc(Br)s4)cs3)n2)cc1 | -25.3%
74 | Cc1cc(C)c(Cn2c3ccccc3c3cnn(CC(=O)NCCC4=CCCCC4)c(=O)c32)c(C)c1 | -12.7%
75 | CCOc1ccccc1C(=O)NC1(C(F)(F)F)C(=O)Nc2c1c(=O)[nH]c(=O)n2-c1ccccc1 (stereo unspecified) | 3.86%
76 | CCCNC(=O)CSC1=N/C(=C/c2ccc(F)cc2)C(=O)N1CC | active: 35%
77 | Cc1ccc(S(=O)(=O)c2cn(Cc3ccccc3)c3cc(N4CCCC4)c(F)cc3c2=O)cc1 | 14.8%
78 | Cc1ccc(-c2nc(NC(=O)CSc3ccc4ccccc4n3)ns2)cc1 | -11.4%
79 | Cc1ccccc1NC(=O)c1nc(S(C)(=O)=O)ncc1N(Cc1ccco1)Cc1sccc1C | 9.66%
80 | Cc1ccccc1OCC(=O)Nc1ccc(C(=O)OCc2cc(=O)n3ccsc3n2)cc1 | -4.27%
81 | CCN(C(=O)CCc1nc(-c2ccc(C)cc2)no1)c1cccc(Cl)c1 | 6.77%
82 | COC(=O)c1cc2sccc2n1CC(=O)Nc1ccc(C)cc1C | -2.32%
83 | Cc1ccc(C(C)C)c(OCc2nn(CC(=O)c3ccc(Cl)cc3)c3[n+]2CCCCC3)c1 | active: 33%
84 | CC1Cc2cc(S(=O)(=O)NCc3ccccc3)ccc2N1C(=O)C1CCC1 (stereo unspecified) | 16.3%
85 | COc1ccc(NC(=O)N2CCN(S(C)(=O)=O)CC2)cc1 | active: 34.1%
86 | O=C(NCc1ccccc1)c1nc(-c2ccc(Cl)cc2)n2c1CCCCC2 | -9.26%
87 | CC[C@H](C)C(=O)O[C@H]1CCC=C2C=C[C@H](C)[C@H](CC[C@@H]3C[C@@H](O)CC(=O)O3)[C@H]21 | active: 38.1%
88 | CCOC(=O)c1cc(OC(=O)c2cc(OC)cc(OC)c2)n(-c2ccccc2)n1 | 20.3%
89 | Clc1ccc2nc(-c3cccs3)c(Nc3ccc4c(c3)OCCO4)n2c1 | 9.34%
90 | CCOC(=O)c1c(NC(=O)CSc2cn(CCNC(=O)c3ccc(OCC)cc3)c3ccccc23)sc2c1CCC2 | -8.35%
91 | Cc1ccc(Cl)cc1NC(=O)Cn1c(SCC(=O)NCc2ccccc2)nc2ccccc21 | -6.12%
92 | CCc1nonc1NC(=O)c1oc2ccc(Cl)cc2c1C | -2.59%
93 | COC(=O)c1cc2oc3ccccc3c2n1CC(=O)Nc1ccc(F)c(Cl)c1 | 16.4%
94 | COc1cccc(CC(=O)Nc2ccc3nc(Nc4cccc(C(F)(F)F)c4)cc(C)c3c2)c1 | -14.9%
95 | CCOc1ccc(CCNC(=O)c2nn(C)c3c2CSc2ccc(C)cc2-3)cc1OCC | -2.62%
96 | Cc1cccc(Cn2c(CN3CCCC(C)C3)nc3c2c(=O)n(C)c(=O)n3C)c1 (stereo unspecified) | -22.7%
